# Laboratory results from PubChem BioAssay AID624414 (National Center for Advancing Translational Sciences (NCATS), 2012).
# Where “and” joins values, the source holds several entries; their conditions need not be identical. Equal values may be shown once. Out of some 410,000 compounds screened, about 480 (0.12%) were called active. Inconclusive means that the source gave no clear call. Such entries were picked first, then a sample of the others. No stated cut-off is given here; in the data, active means activation above about 50%; inconclusive means mostly about 30% to 49%; inactive means weaker than that.
# Target: Mucolipin-1 (Homo sapiens) (UniProt Q9GZU1)
# Assay: qHTS for Agonists of the Human Mucolipin Transient Receptor Potential 1 (TRPML1); further: 0% is about no effect
# Settings: TRPML1-expressing cells, Ca2+ dye fluorescence, FDSS; stronger effect = higher value
# Summary of the method: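 Tetracycline-induced TRPML1-DL cells are seeded and incubated overnight before loading with a no-wash Ca2+ dye and quencher. Agonist activity is taken from the 110 s fluorescence read following compound pin-transfer on an FDSS, before EC80 54-4 challenge.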
# Sequence of UniProt Q9GZU1 (Q9GZU1 whole entry, looked up): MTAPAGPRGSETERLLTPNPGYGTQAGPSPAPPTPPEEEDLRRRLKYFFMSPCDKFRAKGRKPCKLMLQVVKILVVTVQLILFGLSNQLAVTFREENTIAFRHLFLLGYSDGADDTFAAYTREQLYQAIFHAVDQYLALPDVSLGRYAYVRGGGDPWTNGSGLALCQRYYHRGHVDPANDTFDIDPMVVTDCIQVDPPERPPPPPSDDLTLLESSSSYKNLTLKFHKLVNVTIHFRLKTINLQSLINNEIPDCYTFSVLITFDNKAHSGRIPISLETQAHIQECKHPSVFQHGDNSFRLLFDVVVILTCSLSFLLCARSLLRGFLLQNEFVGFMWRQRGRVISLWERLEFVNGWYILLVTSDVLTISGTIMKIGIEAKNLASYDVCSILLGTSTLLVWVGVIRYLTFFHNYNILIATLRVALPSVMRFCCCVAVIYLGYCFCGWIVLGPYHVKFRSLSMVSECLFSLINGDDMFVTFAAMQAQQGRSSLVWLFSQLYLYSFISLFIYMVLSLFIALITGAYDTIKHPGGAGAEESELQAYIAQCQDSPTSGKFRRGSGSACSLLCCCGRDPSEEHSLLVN
row,SMILES,activation
1,Cc1ccc(S(=O)(=O)N2CCCC(C(=O)Nc3ccc(NC(=O)c4ccccn4)cc3)C2)cc1 (stereo not given),inconclusive: 34.5%
2,CCN(CC(=O)Nc1cc(Cl)ccc1C)C(=O)C1COc2ccccc2O1 (stereo not given),inactive: -0.446%
3,OC(CN1CCOCC1)c1ccc(F)cc1 (stereo not given),inactive: 0.779%
4,O=C(Nc1nnc(-c2ccccc2)o1)c1nc2ccccc2s1,inconclusive: 37.4%
5,CC(C)c1nc2c(c(=O)c3ccccc3n2C)c(=O)n1CCc1ccccc1,inconclusive: 35.3%
6,O=C1S/C(=C/c2ccc(N3CCOCC3)o2)C(=O)N1Cc1c(F)cccc1Cl,inconclusive: 40.8%
7,COc1ccc(C(=O)CSc2nc3ncccc3[nH]2)cc1OC,inactive: 0.775%
8,Cc1cc(/C=C2/C(=O)N(C)C(=S)N2C)ccc1N1CCCC1,inconclusive: 39%
9,COc1ccc2nc(S(=O)Cc3ncc(C)c(OC)c3C)[nH]c2c1 (stereo not given),inactive: -0.347%
10,Cc1c(Cl)c([N+](=O)[O-])nn1Cc1ccc(C(=O)Nc2ccc(Cl)cn2)o1,inconclusive: 49.2%
11,Nc1ccc(/C=C/c2cccc3cccnc23)cc1,inactive: 4.06%
12,CCOC(=O)c1ccccc1NS(=O)(=O)c1ccc(OCC)cc1,inconclusive: 32.3%
13,COc1ccc(C(=O)c2sc3nc(-c4ccccc4)ccc3c2N)cc1,inconclusive: 32.1%
14,CCN(CCC(=O)O)c1ccc(/C=C/c2ccnc3ccccc23)cc1,inconclusive: 48.3%
15,CCOc1cc2c3c(c1)C(C)=CC(C)(C)N3C(=O)C2=O,inconclusive: 40.9%
16,CCCCCCc1cc2cc(-c3nnc(-c4ccc(C)cc4)o3)c(=O)oc2cc1O,inconclusive: 46%
17,COc1ccc2c(CN3CCN(Cc4ccccc4)CC3)cc(=O)oc2c1,inactive: -0.922%
18,CCN(CC)c1ccc(NC(=O)c2cc3ccccc3o2)c(C)c1,inactive: 0.715%
19,COc1cc(NS(=O)(=O)c2ccc3c(c2)n(C)c(=O)n3C)cc(OC)c1,inconclusive: 39.8%
20,O=c1c2cc(Br)ccc2nc(-c2cccc(Cl)c2)n1O,inconclusive: 36.2%
21,Cc1ccc2c(c1)C(C)CC(C)(C)N2C(=O)NC1CCCCC1 (stereo not given),inactive: -0.554%
22,O=C1/C(=C\c2ccco2)CCC/C1=C\c1ccco1,inconclusive: 34.1%

row,SMILES,activation
1,O/C(=C\c1nc2ccccc2[nH]1)c1cccs1,inactive: 0.658%
2,Cc1ccc2nc(/C(C#N)=C\c3ccc(N4CCOCC4)o3)[nH]c2c1,inconclusive: 37.6%
3,FC(F)(F)Oc1ccccc1C(c1nnnn1C1CCCCC1)N1CCN(C/C=C/c2ccccc2)CC1 (stereo not given),inconclusive: 37.1%
4,COc1ccc(OC)c(NC(=O)C(=O)NNC(=O)C23CC4CC(CC(C4)C2)C3)c1,inconclusive: 35%
5,Cc1ccc(Cn2nnc(C(=O)Nc3cccc(C)c3C)c2N)cc1,inconclusive: 45%
6,COc1ccc(OC)c(C(c2nnnn2C2CCCC2)N2CCN(c3ccc(F)cc3)CC2)c1 (stereo not given),inconclusive: 39.4%
7,CCCNC(=O)Cn1c(=O)/c(=C\c2ccc(-c3ccc([N+](=O)[O-])cc3)o2)s/c1=C\C(=O)C(C)(C)C,active: 127%
8,COc1ccccc1C(=O)NCC1(c2ccccc2)CCCC1,inconclusive: 36.5%
9,Cc1cc(NC(=O)CSc2nnc3c(C)cc4c(C)ccc(C)c4n23)no1,inactive: 1.42%
10,CCOc1ccc(CN2CCN(Cc3cnc(-c4ccccc4)s3)CC2CCO)cc1 (stereo not given),inactive: -1.12%
11,O=c1cc(C(F)(F)F)[nH]c2ccc(OC(F)(F)F)cc12,inactive: 0.955%
12,N#CC1=C(N)Oc2cc(O)c(Cl)cc2C1c1ccccc1F (stereo not given),inconclusive: 38.9%
13,O=C(CSc1nc2ccc(Nc3nc(N4CCOCC4)nc(N4CCOCC4)n3)cc2s1)Nc1ccccc1Cl,inconclusive: 49.7%
14,CCO[C@H]1OC(C(=O)N2CCN(C)CC2)=C[C@@H](c2csc3ccccc23)[C@@H]1CCCO,inactive: 0.28%
15,CCc1ccc2c(Cl)c(C(=O)N/N=C/c3c[nH]c4ccccc34)sc2c1,inactive: 0.0369%
16,O=C(NCc1cccc(F)c1)c1cccc2c1C(=O)c1ccc(N3CCCC3)cc1S2(=O)=O,inconclusive: 38.8%
17,COc1ccc(Nc2cc(C(=O)NCCCN3CCOCC3)c3ccccc3n2)cc1,inactive: 0.249%
18,CC(C)c1ccc(Nc2c(-c3ccc(N(C)C)cc3)nc3cnccn23)cc1,inactive: -0.19%
19,COc1cc(Nc2nc3ccccc3nc2NS(=O)(=O)c2ccc([N+](=O)[O-])cc2)cc(OC)c1OC,active: 119%
20,CN(C)c1ccc(/C=C/c2ccnc3ccc(-c4ccccc4)cc23)cc1,inconclusive: 31%
21,Cc1c(NC(=O)C(C)OC(=O)c2c3c(nc4ccccc24)CCC3)c(=O)n(-c2ccccc2)n1C (stereo not given),inactive: -0.386%
22,COc1ccc2nc(N3CCCCC3)c(C#N)cc2c1,active: 61.9%

row,SMILES,activation
1,COc1ccc(N2CCN(C3CCCCC3NS(=O)(=O)c3ccccc3)CC2)cc1 (stereo not given),inconclusive: 38.5%
2,Nc1ccc2c(c1)Cc1cc([N+](=O)[O-])ccc1-2,inconclusive: 38%
3,Cn1cccc1/C=N\NC(=O)C1COc2ccccc2O1 (stereo not given),active: 84.6%
4,CC(C)N1CCc2c(sc(NC(=O)c3cc(-c4cccs4)nc4ccccc34)c2C(N)=O)C1,inconclusive: 42.5%
5,CCN(CC)c1ccc(/C=C(/C#N)C(=O)NC(C)C)o1,inconclusive: 33%
6,Cc1cccc(N2C(=O)c3cccc4c(N)ccc(c34)C2=O)c1,active: 104%
7,Cc1cc2nc3c(=O)n(C4CCCCC4)c(=O)[nH]c3nc2cc1N,active: 86.8%
8,CN(C)c1ccc(/C=C(/C(=O)c2ccc(Cl)cc2Cl)n2cncn2)cc1,inconclusive: 45.3%
9,CCC(c1nnnn1CCOC)N1CCN(Cc2ccccc2OC)CC1 (stereo not given),inconclusive: 36.8%
10,Cc1cc(C)c(NC(=O)CNC(=O)Cc2sc(C)nc2-c2ccc(F)cc2)c(C)c1,inconclusive: 36.5%
11,O=C(O)c1[nH]c2ccccc2c1C(c1cc(Cl)cc([N+](=O)[O-])c1O)c1c(C(=O)O)[nH]c2ccccc12,inactive: -0.243%
12,Cc1ccc(S(=O)(=O)N2C[C@@H]3[C@H]4CC[C@H](C4)[C@@H]3[C@@H](C)[C@H]2c2ccco2)cc1,inconclusive: 33.7%
13,COc1ccc(CC(=O)N2N=C(C)CC2(O)C(F)(F)F)cc1 (stereo not given),inconclusive: 39.3%
14,Cc1onc(-c2ccccc2)c1C(=O)NC(=S)NNC(=O)c1ccccc1O,inconclusive: 41.6%
15,O=C1N2CCSC2=NC1(Nc1ccccn1)C(F)(F)F (stereo not given),inconclusive: 34.3%
16,O=c1ccc2cc3c4c(c2o1)CCCN4CCC3,inconclusive: 36.2%
17,CCCCn1nnnc1C(c1ccccc1)N1CCN(c2ccc(C(F)(F)F)cc2[N+](=O)[O-])CC1 (stereo not given),inconclusive: 38.2%
18,O=C1C(NS(=O)(=O)c2ccc(Cl)cc2)=C(N2CCCCC2)C(=O)c2ccccc21,inconclusive: 43.8%
19,Fc1ccc(C2=CC(c3ccc(Br)o3)n3ncnc3N2)cc1 (stereo not given),inconclusive: 42.7%
20,COc1cccc(CNc2ccc3[nH]c(=O)[nH]c3c2)c1OCc1ccc(F)cc1,inactive: 0.506%
21,CCCCCCC[n+]1ccc(/C=C/c2c(C)[nH]c3ccccc23)cc1,active: 57.1%
22,O=C(/C=C/c1ccc(Cl)c([N+](=O)[O-])c1)Nc1ccc(NC(=O)c2ccco2)cc1,inactive: 1.91%

row,SMILES,activation
1,COc1ccc(Cl)cc1C(=O)NNC(=S)NC(=O)c1ccc(F)c(F)c1,inconclusive: 42.5%
2,Cc1ccc(S(=O)(=O)N2C=CC(C(F)(F)F)=NCC2)cc1,inactive: -0.0302%
3,C=C[C@@H]1c2ccccc2N(S(=O)(=O)c2ccc(C)cc2)[C@H](c2ccccc2)C1(C#N)C#N,inconclusive: 41.9% and active: 62.7%
4,CC(OC(=O)/C(C#N)=C/c1ccc(N(C)C)cc1)C(=O)N(C)c1ccccc1 (stereo not given),inconclusive: 45.6%
5,CCN1C(=O)[C@@H]2[C@@H]3CN(S(=O)(=O)c4ccc(C)cc4)[C@@H](c4ccccc4Cl)[C@@H]3C(=O)C[C@@H]2C1=O,inconclusive: 47.3%
6,CCN1/C(=C/c2ccc3cc(C)ccc3[n+]2CC)Sc2ccccc21,inconclusive: 31.3%
7,Cc1cc(N2CCCCC2)nc(NCc2ccccc2)n1,inconclusive: 42.3%
8,CC(C)(C)c1cc(-c2nc(N)nc(N)n2)c(O)c(C(C)(C)C)c1,inactive: 0.369%
9,Fc1ccc(Br)cc1C1C=C(c2ccc(Br)cc2)Nc2ncnn21 (stereo not given),inconclusive: 32.6%
10,O=C1/C(=C/c2ccc(N3CCCC3)cc2)NC(=S)N1C1CC1,active: 50.1%
11,COc1ccc(-c2noc(N3CCC(C(=O)Nc4ccccc4Cl)CC3)n2)cc1,inactive: 1.02%
12,CCOC(=O)C1=NN(C(=O)c2ccc(C)cc2)C(O)(c2ccc(Cl)cc2)C1 (stereo not given),inconclusive: 38.6%
13,Cc1cn2c(N)c(C=C3C=C(Cl)C(=O)C(Cl)=C3)c(=O)nc2s1,inconclusive: 33.8%
14,CCCCc1cc(O)c(CCCC)c(O)c1,inconclusive: 35.2%
15,CN1CCCc2cc(/C=C/c3ccnc4ccccc34)ccc21,active: 52.5%
16,COc1ccc(C(=O)Oc2ccc3c(C)cc(=O)oc3c2C(C)=O)cc1,inactive: -0.316%
17,C(=Nc1ccc(/C=C/c2ccnc3ccccc23)cc1)Nc1ccc(/C=C/c2ccnc3ccccc23)cc1,inactive: 8.34%
18,c1coc(CNc2nc(NCc3ccco3)c3ccccc3n2)c1,inconclusive: 40%
19,CCCCCCn1c(=O)[nH]c2nc3cc(N)ccc3nc2c1=O,active: 50.8%
